Data reported in US20240010748A1 (SHANGHAI QILU PHARMACEUTICAL RESEARCH AND DEVELOPMENT CENTRE, published 2024).
Positions count from the first letter of the chain named. Numbers in names are those of the source.

How the values were obtained:
human CD3 E&D protein = target: T1, human CD3 E&D protein (human, UniProt P07766 23-126; P04234 22-105); assay: SPR (Biacore 8K), CD3 E&D immobilised by amino coupling, antibody as analyte, 1:1 fit
T1 construct: Soluble CD3 epsilon and delta protein immobilised on the chip; also called Humanized CD3 E&D; humanized CD3 E&D protein
Protocol: The affinity and kinetic properties of the bispecific antibodies to human CD3 E&D proteins were determined by surface plasmon resonance (SPR) using a Biacore 8K instrument. The human CD3 E&D protein was immobilized on the experimental channel of CMS chip by amino coupling, then the antibody to be tested was subjected to doubling dilution to serial concentrations, flowed through the surfaces of an experimental channel and a reference channel successively for binding, followed by dissociation, the binding and dissociation curve of each sample was obtained, and the results were analyzed and evaluated by Biacore Insight Evaluation software.
The bispecific antibodies of the present disclosure were diluted to 400 nM with 1×HBS-EP+ (10 mM HEPES, pH 7.4, 150 mM NaCl, 3 mM EDTA, 0.05% P20) running buffer, then subjected to doubling dilution to 1.56 nM with this buffer, thus obtaining antibody solutions in a range of concentrations from 400 nM to 1.56 nM. At the end of each experiment, the chip was regenerated by washing with 3M MgCl₂ solution at a flow rate of 30 μL/min for 30 s to remove captured antibody together with antigen. The raw data were analyzed using Biacore Insight Evaluation Software (version 2.0.15.12933) with a 1:1 fit model and affinity and kinetic experimental data of the resulting bispecific antibodies were shown in Table 4.

[1] = target: T2, human Claudin 18.2 (hCLDN18.2) on stably-transfected HEK293 cells (human, UniProt P56856-2 1-261); assay: cell-based or functional assay
T2 sequence (looked up): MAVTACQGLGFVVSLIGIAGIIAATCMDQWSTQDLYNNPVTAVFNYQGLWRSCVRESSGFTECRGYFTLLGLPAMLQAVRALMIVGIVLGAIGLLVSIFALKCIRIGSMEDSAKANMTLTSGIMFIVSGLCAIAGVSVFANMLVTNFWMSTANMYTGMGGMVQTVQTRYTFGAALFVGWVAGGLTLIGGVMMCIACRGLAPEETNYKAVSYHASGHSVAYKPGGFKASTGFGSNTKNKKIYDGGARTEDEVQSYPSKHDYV

[2] = target: T3, Cynomolgus macaques Claudin 18 (cynoCLDN18) on stably-transfected HEK293 cells (Cynomolgus macaques, UniProt A0A2K5VVB4 1-261); assay: FACS on HEK293-cynoCLDN18 cells
T3 chain: T2 sequence (looked up) with I240T, R246H, V251L

[3] = target: T4, human CD3 (hCD3) naturally expressed on Jurkat cells (human, UniProt P07766); assay: FACS on Jurkat cells
T4 construct: whole, on cells; CD3 on cells is a complex of several chains; also called CD3 receptors on Jurkat-NFAT cells
Protocol: (§1) The binding situation of the anti-CD3-CLDN18.2 bispecific antibodies to stably-transfected HEK293 cells expressing hCLDN18.2 (HEK293-hCLDN18.2) and T lymphocytes naturally expressing hCD3 (Jurkat) were detected by using FACS.
(§2) HEK293-hCLDN18.2 or Jurkat cells were collected and re-suspended with FACS buffer (PBS+1% BSA+0.5 mM EDTA), after adjusting the cell concentration, 1E5 cells per well were added into a 96-well plate, and then the antibody after gradient dilution was added according to the preset concentration, wherein the negative control was human IgG1AA (Negative-IgG1AA), the positive control of CLDN18.2 was antibody 6#AA, and the positive control of CD3 was antibody h160C9AA. […]

[4] = target: T2, human Claudin 18.2 (hCLDN18.2) on …; assay: cell-based or functional assay; remark: listed apart in the source
[5] = target: T2, human Claudin 18.2 (hCLDN18.2) on …; assay: FACS on HEK293-hCLDN18.2 cells
Protocol: as §1, §2

[6] = target: T4, human CD3 (hCD3) naturally expressed on …; assay: cell-based or functional assay

human CD3 E&D protein, sequence (P07766 23-126, chain 1 of 2): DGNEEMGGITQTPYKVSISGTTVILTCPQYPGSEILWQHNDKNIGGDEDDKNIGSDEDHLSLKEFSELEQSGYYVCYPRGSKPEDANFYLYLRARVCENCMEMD
human CD3 E&D protein, sequence (P04234 22-105, chain 2 of 2, further chain): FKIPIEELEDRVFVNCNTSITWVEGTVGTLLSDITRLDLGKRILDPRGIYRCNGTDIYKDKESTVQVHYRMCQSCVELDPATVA

B1: 31905-38AA (bispecific antibody, human IgG1, kappa)
heavy: QVQLVQSGAEVKKPGASVKVSCKASGYIFTNYWIHWVRQAPGQGLEWMGRIYPGTGNTYYNEKFTGRVTMTRDTSTSTVYMELSSLRSEDTAVYYCAREGYGKGNSMDYWGQGTTVTVSS[human IgG1 constant region with changes cut from this listing]
light: DIVMTQSPDSLAVSLGERVTMNCKSSQSLLNAGNQKNYLTWYQQKPGQPPKLLFYWASTRESGVPDRFSGSGSGTDFTLTISSVQAEDVAVYHCQNAYYYPYTFGGGTKLEIKRTVAAPSVFIFPPSDEQLKSGTASVVCLLNNFYPREAKVQWKVDNALQSGNSQESVTEQDSKDSTYSLSSTLTLSKADYEKHKVYACEVTHQGLSSPVTKSFNRGECGGGGSAQAVVTQEPSLTVSPGGTVTLTCRSSTGAVTTSNYANWVQQKPGQAPRGLIGGTNKRAPGTPARFSGSLLGGKAALTLSGAQPEDEAEYYCALWYSNLWVFGGGTKLTVLGGGGSGGGGSGGGGSEVKLVESGGGLVQPGGSLKLSCAASGFTFNTYAMNWVRQAPGKGLEWVARIRSKYNNYATYYADSVKDRFTISRDDAKNTLYLQMNNLRTEDTAVYYCVRHGNFGNSYVSWFAYWGQGTLVTVSS
notes: Full-length 6#AA (IgG1 Fc with L234A/L235A) with the anti-CD3 scFv of h160C9AA on the C-terminus of both light chains; also called anti-CD3-CLDN18.2 bispecific antibody; CD3 bivalent antibody
What does the source list for B1?
Kd (human CD3 E&D protein): 0.978 nM; koff (human CD3 E&D protein): 0.000766 s⁻¹; kon (human CD3 E&D protein): 782000 M⁻¹ s⁻¹; T cell activation, CD25+CD69+ % [1]: 38.9%; T cell activation, EC50 [1]: 0.022 nM; TDCC activity, EC50 [1]: 0.13 nM; TDCC activity, Maximum lysis (%) [1]: 54.6%; EC50 [2]: 0.58 nM; MFI (Max) [2]: 28600 MFI; EC50 [3]: 14.1 nM; Top mean fluorescence intensity (Top MFI) [3]: 2020 MFI; ADCC activity, EC50 [4]: 0.501 nM; ADCC activity, Maximum lysis (%) [4]: 19.9%; EC50 [5]: 0.98 nM; Top mean fluorescence intensity (Top MFI) [5]: 24200 MFI; Jurkat-NFAT luciferase reporter, EC50 [6]: 7.62 nM; Jurkat-NFAT luciferase reporter, Fluorescence value (Max) [6]: 117000
